The shares of active, inactive and inconclusive entries below differ from those in the screen. For some assays here: A potency beside an inconclusive call is a rough fit, not a confirmed value. The source made the active and inactive calls. The call rests on the fitted dose curve; in most records, active means well fitted curve in the direction sought with a large enough effect; inconclusive means small, poorly fitted or top-dose-only effect, or another doubt; inactive means no such curve, though single readings can be large; an effect the other way counts as inactive or inconclusive.
Assays:
[1] = HEK293 18hr Apoptosis Induction qHTS against the NCATS CANVASS Library (AID 1347357); further: potency means the concentration at half of the fitted maximal effect
Summary of the method: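 HEK293 cells (500 per well, DMEM with 10% FBS) were treated with natural products, incubated 18 hours at 37 degrees C, then caspase-3/7 activity was read by Caspase-Glo luminescence after 15 min at room temperature.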

[2] = J3T Cancer Cell Toxicity qHTS against the NCATS CANVASS Library (AID 1347371); further: potency means the concentration at half of the fitted maximal effect
Summary of the method: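 Viability of the J3T glioma line from dog is scored by ATP luminescence after a 72 hr incubation with natural products.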

[3] = qHTS for Hypoxia signaling pathway (HIF-1) agonists against the NCATS CANVASS Library (AID 1347375); further: potency means the concentration at half of the fitted maximal effect
Summary of the method: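 Inducers of HIF-1 signaling were detected in ME-180 cells bearing an HRE-driven beta-lactamase reporter after 17 h compound exposure. Activity came from CCF4-AM FRET emission ratio (460/530 nm) in qHTS format.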

[4] = qHTS for activators of dead-cell proteases activity screened against the NCATS CANVASS Library (AID 1347392);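 further: luminescence from protease leaking out of membrane-damaged cells cleaving impermeant substrate; rising signal means more cytotoxicity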; further: potency means the concentration at half of the fitted maximal effect
Summary of the method: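 HepG2 cells (2000/well) attached 18 h at 37C, then exposed 5 h to compounds (11-point qHTS). Dead-cell protease activity read as luminescence from cell-impermeant AAF-aminoluciferin substrate after 15 min at room temperature.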

[5] = Vero-766 cells viability qHTS against the NCATS CANVASS Library: Counterscreen for Zika virus inhibition assay (AID 1347394); settings: Vero 766 viability, CellTiter-Glo luminescence, 72 h; series mostly up to 46.1 µM; further: potency means the concentration at half of the fitted maximal effect; nearly all actives have a fitted effect of over 60% in size
Summary of the method: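 Uninfected Vero 766 (African green monkey) cells, 1000/well, attached overnight, then exposed 72 h at 37C to compounds (11-point qHTS). Viability read by CellTiter-Glo luminescence; media-only wells served as 100% inhibition.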

[6] = SDT Cancer Cell Toxicity qHTS against the NCATS CANVASS Library (AID 1347365); further: potency means the concentration at half of the fitted maximal effect; nearly all actives have a fitted effect of over 60% in size
Summary of the method: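 Dispense 500 SDT cells per well; pin-transfer compounds; incubate 72 hr at 37C, 5% CO2, 95% RH; add CellTiterGlo and read luminescence.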

[7] = G06 Cancer Cell Toxicity qHTS against the NCATS CANVASS Library (AID 1347368); further: nearly all actives have a fitted effect of over 60% in size; further: potency means the concentration at half of the fitted maximal effect
Summary of the method: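 Cytotoxicity toward canine glioma G06 cells is scored from cellular ATP via luminescence after 72 hr compound exposure at 500 cells/well.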

[8] = qHTS assay for small molecule disruptors of mitochondrial membrane potential screened against the NCATS CANVASS Library (AID 1347389); further: potency means the concentration at half of the fitted maximal effect; nearly all actives have a fitted effect of over 60% in size
Summary of the method: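 Compounds tested in 11-point qHTS series on HepG2 cells for 1 hr; membrane-potential dye added for 30 min at 37C. Lower red-to-green ratio indicates loss of potential.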

[9] = Redox Reaction Profiling qHTS: Assay Interference Panel against the NCATS CANVASS Library (AID 1347401); further: potency means the concentration at half of the fitted maximal effect
Summary of the method: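 Resazurin (5 uM) conversion to resorufin measured with 200 uM DTT in 50 mM HEPES pH 7.3, 50 mM NaCl. Compounds tested in 11-point qHTS series. Fluorescence (ex 525/em 598 nm) read before and after 15 min dark incubation.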

[10] = test system: Zika virus NS2B-NS3 protease (unlinked complex); assay: Primary screen GU Rhodamine qHTS for Zika virus inhibitors: Unlinked NS2B-NS3 protease assay (AID 1347159); further: nearly all actives have a fitted effect of over 60% in size; further: potency means the concentration at half of the fitted maximal effect
Summary of the method: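 Noncovalent NS2B hydrophilic domain/NS3 protease complex (25 nM final) in 10 mM Tris-HCl pH 8.0, 0.01% Tween 20, preincubated 15 min with compounds (up to 114 microM), then 1.5 microM Rhodamine110 substrate. Fluorescence change over 15 min fitted to 4-parameter Hill.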

[11] = COV-362 Cancer Cell Toxicity qHTS against the NCATS CANVASS Library (AID 1347352); further: potency means the concentration at half of the fitted maximal effect
Summary of the method: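 qHTS cytotoxicity: compounds tested in 11 concentrations on 1000 seeded cells per well over 72 h; bortezomib served as control; signal from CellTiter-Glo luminescence.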

[12] = qHTS for ATAD5 Antagonist screened against the NCATS CANVASS Library (AID 1347370); further: potency means the concentration at half of the fitted maximal effect; nearly all actives have a fitted effect of over 65% in size
Summary of the method: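 HEK293T cells with a stably integrated ATAD5-controlled luciferase reporter were exposed to compounds (11-pt) alongside 10 uM 5-fluorouridine as ATAD5 stabilizer for 16hr at 37C. Viability was read by CellTiter-Fluor fluorescence, then ATAD5 by luminescence.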

[13] = target: Nuclear receptor subfamily 1 group I member 3 (Homo sapiens) (UniProt Q14994); assay: qHTS for Constitutive Androstane Receptor (CAR) Antagonist screened against the NCATS CANVASS Library (AID 1347372); further: potency means the concentration at half of the fitted maximal effect
Summary of the method: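 HepG2 cells stably carrying hCAR and a CYP2B6-2.2kb luciferase reporter were exposed to compounds plus 50 nM CITCO for 24hr at 37C. CAR activity was read by ONE-Glo luminescence, with viability measured first by CellTiter-Fluor.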

[14] = qHTS for H2AX Agonists against the NCATS CANVASS Library (AID 1347378); further: potency means the concentration at half of the fitted maximal effect
Summary of the method: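 CHO-K1 cells were plated overnight at 37C, then exposed to compounds (concentration series, 0.76% DMSO final) for 3 hr at 37C. Lysates received Eu-cryptate anti-pH2AX (S139) and d2 anti-H2AX antibodies; after 24 hr at room temperature, TR-FRET 665/620 nm ratio was read.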

[15] = DH5-alpha competent E. coli microbial cell viability qHTS against the NCATS CANVASS Library (AID 1347377); settings: viability signal change, negative = cytotoxic: at 46.1 µM (top of the series); further: potency means the concentration at half of the fitted maximal effect
Summary of the method: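 Cell viability of competent DH5-alpha E. coli is scored from ATP content by luminescence. Cells sit overnight at 37C with compound across an 11-point concentration series.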

[16] = test system: NAD(P)H diaphorase (Clostridium kluyveri); assay: Diaphorse counterscreen qHTS: Assay Interference Panel against the NCATS CANVASS Library (AID 1347362); further: potency means the concentration at half of the fitted maximal effect
Summary of the method: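 Clostridium kluyveri diaphorase in PBS with 0.01% Tween-20 was preincubated 15 min at room temperature in the dark with compounds (11-point series). Resorufin fluorescence (ex 525/20, em 598/25) was read 5 min after adding resazurin/NADH.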

[17] = target: Nuclear receptor subfamily 1 group I member 3 (Homo sapiens) (UniProt Q14994); assay: qHTS for Constitutive Androstane Receptor (CAR) Agonist screened against the NCATS CANVASS Library (AID 1347373)
Summary of the method: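 CAR agonism is scored as CYP2B6-promoter luciferase induction in a double-stable transfected HepG2 line, where 1.5uM PK11195 is included in each well. Compounds were tested over a 24hr exposure.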

[18] = KB-3-1 Cancer Cell Toxicity qHTS against the NCATS CANVASS Library (AID 1347366); further: potency means the concentration at half of the fitted maximal effect; nearly all actives have a fitted effect of over 75% in size
Summary of the method: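 KB-3-1 cells (500 cells/well) in DMEM + 10% FBS were treated with compounds for 72 hr at 37C, 5% CO2. Viability was read as CellTiter-Glo luminescence after 10 minutes at room temperature.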

[19] = qHTS for Inflammasome Signaling Inhibitors: IL-1-beta AlphaLISA screen against the NCATS CANVASS Library (AID 1347379);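 further: human THP-1 cells primed with LPS then triggered with ATP; secreted IL-1B measured as AlphaLISA emission at 615 nm; lower signal means less IL-1B release which is the wanted effect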
Summary of the method: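 Human THP-1 cells were pretreated 1 hr at 37 °C with compounds (up to 57.5 uM final), then stimulated with LPS (250 ng/mL final) and ATP (1.25 mM final). Secreted IL-1B was read by AlphaLISA after 16 hr.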
Tags describe the fitted curve by direction and shape.

Sequence of UniProt Q14994 (Q14994 whole entry, looked up): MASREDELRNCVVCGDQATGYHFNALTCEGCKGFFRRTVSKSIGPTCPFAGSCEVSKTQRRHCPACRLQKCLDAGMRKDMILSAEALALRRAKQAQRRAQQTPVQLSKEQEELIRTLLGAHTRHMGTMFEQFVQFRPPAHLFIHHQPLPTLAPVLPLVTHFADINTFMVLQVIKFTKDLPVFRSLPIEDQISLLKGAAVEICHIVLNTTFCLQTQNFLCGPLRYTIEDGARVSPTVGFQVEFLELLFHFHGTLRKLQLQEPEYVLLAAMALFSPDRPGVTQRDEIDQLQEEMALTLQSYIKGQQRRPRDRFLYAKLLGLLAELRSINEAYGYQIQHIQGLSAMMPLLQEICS

With CO/C=C/C(=O)c1cc2cnc3c(N)cc(=NC(=O)C(C)C)c([nH]1)c23 the Potency [1] was “inactive”, the Potency [2] was active: 0.743 µM and the Potency [3] was inconclusive: 14.9 µM [activator, partial curve]. The Potency [4] was active: 23.4 µM and the Potency [5] was active: 0.524 µM.

In the case of COc1c(O)cc2c(c1O)C(=O)c1c(coc1C)C2=O, the Potency [6] is reported as inconclusive: 3.32 µM [cytotoxic, full curve], the Potency [7] is reported as inconclusive: 2.64 µM [cytotoxic, full curve] and the Potency [8] is reported as active: 10.5 µM. The Potency [4] was “inactive” and the Potency [9] was active: 24.1 µM.

For CC1CCC2C(C)(C)C(O)C(O)CC2(C)C12Cc1c(O)cc(CO)c(C=O)c1O2 (centres undefined), the Potency [10] was inconclusive: 14.1 µM [inhibitor, full curve].

With C/C=C/c1cc2c(c(=O)o1)C(=O)[C@@H](O)[C@H](C)O2 the Potency [11] was inconclusive: 13.3 µM [cytotoxic, partial curve], the Potency [1] was inconclusive: 33.2 µM [activator, partial curve, poor fit] and the Potency [12] was inconclusive: 37.1 µM [inhibitor, single point]. For the same molecule, the Potency [13] was inconclusive: 37.1 µM [inhibitor, single point] and the Potency [14] was inconclusive: 48.6 µM [activator, single point].

For C=CCC1=C[C@]2(OC)[C@H](C)[C@@H](c3ccc(OC)c(OC)c3)O[C@]2(OC)CC1=O, the Potency [10] was “inactive”.

For COC(=O)C1=C[C@]23C[C@@H](C)CC[C@@H]2[C@@]2(C)CC[C@@H](C(C)C)[C@@](O)(O3)[C@@H]12, the Potency [11] was inconclusive: 29.8 µM [cytotoxic, single point], the Potency [1] was inconclusive: 33.2 µM [activator, single point] and the Potency [6] was inconclusive: 2.64 µM [cytotoxic, full curve]. For the same molecule, the Potency [7] was “inactive”, the Potency [15] was inconclusive: 37.1 µM [rising, single point] and the Potency [4] was “inactive”.

With Nc1ncnc2c1ncn2[C@H]1CCCO1 the Potency [10] was “inactive”.

For CC(C)=CCC/C(C)=C/Cc1cc([C@@H]2CC(=O)c3c(cc(O)c(CC=C(C)C)c3O)O2)ccc1O, the Potency [11] was inconclusive: 23.6 µM [cytotoxic, single point], the Potency [1] was “inactive” and the Potency [16] was inconclusive: 19.3 µM [inhibitor, partial curve]. For the same molecule, the Potency [7] was “inactive” and the Potency [17] was inconclusive: 18.6 µM [activator, partial curve].

With O=C(OC[C@H]1O[C@@H](OC(=O)c2cc(O)c(O)c(O)c2)[C@H](OC(=O)c2cc(O)c(O)c(O)c2)[C@@H](OC(=O)c2cc(O)c(O)c(O)c2)[C@@H]1OC(=O)c1cc(O)c(O)c(O)c1)c1cc(O)c(O)c(O)c1 the Potency [16] was inconclusive: 6.84 µM [inhibitor, partial curve], the Potency [18] was inconclusive: 33.2 µM [cytotoxic, single point] and the Potency [7] was active: 23.5 µM. For the same molecule, the Potency [3] was inconclusive: 29.8 µM [activator, partial curve, poor fit], the Potency [15] was inconclusive: 11.7 µM [cytotoxic, partial curve] and the Potency [14] was inconclusive: 43.3 µM [activator, single point]. The Potency [19] was “inactive” and the Potency [5] was inconclusive: 11.7 µM [cytotoxic, partial curve, poor fit].

In the case of CCCc1c2c([nH]c(=O)c1C)C(=O)c1[nH]c(=O)c(C)c(CCC)c1C2=O, the Potency [11] is reported as active: 7.47 µM, the Potency [16] is reported as inconclusive: 6.09 µM [inhibitor, full curve] and the Potency [7] is reported as inconclusive: 11.8 µM [cytotoxic, partial curve]. For the same molecule, the Potency [13] was inconclusive: 11.7 µM [inhibitor, partial curve, poor fit], the Potency [15] was “inactive” and the Potency [14] was inconclusive: 54.5 µM [activator, single point]. For the same molecule, the Potency [8] was inconclusive: 16.6 µM [inhibitor, partial curve].

From PubChem BioAssay (NCATS)
